Measurements reported in publication PMC4336329 (PLoS ONE, 2015).
Among all 310,000 compounds or so, about 14,000 (4.5%) showed an effect of 50% or more. The effect is printed as a negative number. This is one part of the list.

target: human ether-à-go-go-related gene (hERG) potassium channel (human, UniProt Q12809); assay: primary screen, population patch clamp on CHO cells stably expressing hERG
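Note: peak tail current of the secondary pulse compared with the same well before compound.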

Sequence of human ether-à-go-go-related gene (hERG) potassium channel (Q12809 whole entry, looked up): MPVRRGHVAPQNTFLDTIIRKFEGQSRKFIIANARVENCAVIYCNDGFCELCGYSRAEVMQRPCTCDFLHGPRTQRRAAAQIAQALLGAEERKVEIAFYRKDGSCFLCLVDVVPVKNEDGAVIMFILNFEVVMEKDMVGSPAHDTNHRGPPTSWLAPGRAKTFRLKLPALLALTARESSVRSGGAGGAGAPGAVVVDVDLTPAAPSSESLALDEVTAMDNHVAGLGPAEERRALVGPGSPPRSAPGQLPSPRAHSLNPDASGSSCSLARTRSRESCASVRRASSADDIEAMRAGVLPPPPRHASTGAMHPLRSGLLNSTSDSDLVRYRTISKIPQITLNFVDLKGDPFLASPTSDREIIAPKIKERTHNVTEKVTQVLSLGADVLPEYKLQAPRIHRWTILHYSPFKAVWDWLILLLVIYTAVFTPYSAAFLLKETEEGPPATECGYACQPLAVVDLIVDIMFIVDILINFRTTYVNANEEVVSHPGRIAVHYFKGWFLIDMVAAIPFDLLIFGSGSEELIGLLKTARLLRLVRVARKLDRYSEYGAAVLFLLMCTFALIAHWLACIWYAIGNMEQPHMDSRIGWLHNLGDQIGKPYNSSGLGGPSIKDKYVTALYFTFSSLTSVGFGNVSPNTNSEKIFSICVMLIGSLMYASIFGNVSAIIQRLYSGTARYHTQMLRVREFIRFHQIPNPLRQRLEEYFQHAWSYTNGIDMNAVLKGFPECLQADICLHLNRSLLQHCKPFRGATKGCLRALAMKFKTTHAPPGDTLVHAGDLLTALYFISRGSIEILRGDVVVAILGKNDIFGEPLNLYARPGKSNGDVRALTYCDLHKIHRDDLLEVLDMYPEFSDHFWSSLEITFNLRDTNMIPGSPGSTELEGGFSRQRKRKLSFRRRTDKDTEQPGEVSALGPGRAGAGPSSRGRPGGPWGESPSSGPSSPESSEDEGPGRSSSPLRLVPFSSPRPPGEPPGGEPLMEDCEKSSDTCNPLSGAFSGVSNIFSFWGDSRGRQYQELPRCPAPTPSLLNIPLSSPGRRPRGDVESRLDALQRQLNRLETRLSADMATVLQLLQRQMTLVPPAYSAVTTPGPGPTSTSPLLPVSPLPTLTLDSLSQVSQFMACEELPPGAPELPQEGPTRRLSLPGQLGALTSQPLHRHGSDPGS

Compared with `Cn1c(Cn2c(=O)sc3ccccc32)nnc1SCc1cccnc1`, `O/N=C/CCn1c(=S)sc2ccccc21` is higher in “hERG current change (%, negative = inhibition) at 10uM” value: -23.4% for the first, -6.55% for the second.

First: COc1ccc(N2C(=O)CC(NC34CC5CC(CC(C5)C3)C4)C2=O)c(OC)c1 (centres unmarked)
Second: COc1ccc(OC)c(C2=NOC(C(=O)N3CCCc4ccccc43)C2)c1 (centres unmarked)
The “hERG current change (%, negative = inhibition) at 10uM” value of the first is higher: -3.76% for the first, -13.3% for the second.

First: COc1ccc2c(c1)c1nc(SCC(C)C)n(CCO)c(=O)c1n2C
Second: COc1ccc(-n2ncc3c2CC(C)(C)CC3NC(=O)CCCN2CCCC2=O)cc1 (centres unmarked)
The “hERG current change (%, negative = inhibition) at 10uM” value of the first is higher: 5.8% for the first, 4.49% for the second.

First: CS(=O)(=O)N(Cc1ccc(Cl)cc1)c1ccc(C(=O)NCCSCc2ccco2)cc1
Second: O=C(c1ccco1)n1nc(-c2ccc(Cl)cc2)nc1NCc1ccco1
The “hERG current change (%, negative = inhibition) at 10uM” value of the first is lower: -8.51% for the first, 3.05% for the second.

First: c1ccc2nc(-c3nc4ccccc4o3)ccc2c1
Second: COc1ccc(CN(C)C(=O)c2ccc3ccccc3n2)cc1F
The “hERG current change (%, negative = inhibition) at 10uM” value of the first is higher: 7.95% for the first, -24% for the second.

Going from `Cc1sc(NC(=O)/C=C/c2ccco2)c(C(=O)OC(C)C)c1C` to `CCN(CC)C(=O)c1sc(NC(=O)c2ccc(Br)o2)c(C(=O)OC)c1C`, the “hERG current change (%, negative = inhibition) at 10uM” value falls from -1.79% to -6.13%.

Compared with `NC(N)=N/N=C/c1cccc([N+](=O)[O-])c1O`, `COCCCNC(=S)N/N=C/c1ccccc1O` is lower in “hERG current change (%, negative = inhibition) at 10uM” value: 25% for the first, 0.332% for the second.

First: Cc1sc2ncnc(N3CCN(S(=O)(=O)c4ccc(F)cc4)CC3)c2c1C
Second: CC(=O)c1ccc(S(=O)(=O)N2CCC(NC(=O)Nc3cccc(F)c3)CC2)cc1
The “hERG current change (%, negative = inhibition) at 10uM” value of the first is lower: -50.9% for the first, 3.31% for the second.

First: COc1ccccc1CC(=O)NCCc1ccc(S(N)(=O)=O)cc1
Second: COc1ccc(CCNC(=O)c2nnn(-c3cccc(C)c3)c2N)cc1OC
The “hERG current change (%, negative = inhibition) at 10uM” value of the first is higher: 7.96% for the first, -38.8% for the second.

Compared with `N#CNC(N)=Nc1cccc(Cl)c1`, `Cc1cc(NC(=O)c2c(Cl)cccc2Cl)no1` is higher in “hERG current change (%, negative = inhibition) at 10uM” value: 12.1% for the first, 18.1% for the second.

Compared with `O=C1c2cccc3cc(Br)cc(c23)C(=O)N1Nc1ccc(Br)cc1`, `O=C(Nc1cccc2cccnc12)c1ccc(Br)cc1Br` is higher in “hERG current change (%, negative = inhibition) at 10uM” value: 9.63% for the first, 21.6% for the second.

Compared with `CSc1ncccc1C(=O)OCC(=O)N(C)c1c(N)n(Cc2ccccc2)c(=O)[nH]c1=O`, `O=C(O)CN1C(=O)/C(=C\c2cccc(OCc3ccccc3)c2)SC1=S` is higher in “hERG current change (%, negative = inhibition) at 10uM” value: -29.7% for the first, 16.2% for the second.

Compared with `CCN1CCN(C(=O)CCc2nnc(CCc3c[nH]c4ccccc34)o2)[C@@H](C)C1=O`, `CC1CCCCN1C(=O)CSc1nc(-c2ccccc2)cc(=O)[nH]1` (centres unmarked) is higher in “hERG current change (%, negative = inhibition) at 10uM” value: -0.775% for the first, 1.27% for the second.

Going from `FC(F)(F)c1ccc(N2CCOCC2)c(Nc2nc3ccccc3n3cnnc23)c1` to `Cc1ccccc1N1C(=O)N(c2cccc(C(F)(F)F)c2)C2CS(=O)(=O)CC21` (centres unmarked), the “hERG current change (%, negative = inhibition) at 10uM” value falls from 7.53% to -7.21%.

Compared with `CC/C(=N\N1CCCCC1)c1c(O)[nH]c(=O)[nH]c1=O`, `Cc1cc(=O)[nH]c(SCC(=O)Nc2nc3c(s2)CCCC3)n1` is lower in “hERG current change (%, negative = inhibition) at 10uM” value: 6.97% for the first, 0.634% for the second.

Compared with `CCc1cccc(CC)c1NC(=O)CCCSc1nc2ccccc2s1`, `O=C(CSc1nc(-c2ccccc2)cc(=O)[nH]1)Nc1ccccc1F` is higher in “hERG current change (%, negative = inhibition) at 10uM” value: 2.02% for the first, 18.2% for the second.

First: COc1cccc(NC(=O)CN(C)CC(=O)NC(C)c2ccccc2)c1 (centres unmarked)
Second: CC1(C(=O)N2CC3(CC(c4cccc(NC(=O)CC(c5ccccc5)c5ccccc5)c4)=NO3)C[C@@H]2C(N)=O)CC1 (some centres unmarked)
The “hERG current change (%, negative = inhibition) at 10uM” value of the first is lower: -8.48% for the first, 4.05% for the second.

Going from `Cc1nn(Cc2ccc(F)cc2)c(C)c1NC(=O)c1cc2ncc(Br)cn2n1` to `O=C(COc1ccc(Br)cc1)Nc1ccc(CN2CCOCC2)cc1`, the “hERG current change (%, negative = inhibition) at 10uM” value falls from -15.1% to -40.6%.

Compared with `O=C(Nc1c(Cl)cccc1Cl)C1CCN(C(=O)c2cccs2)CC1`, `C/C(=N\NC(=O)CNC(=O)c1cccs1)c1ccc(Cl)c(Cl)c1` is lower in “hERG current change (%, negative = inhibition) at 10uM” value: 6.5% for the first, -2.25% for the second.

Compared with `CCOC(=O)C1(Cc2ccc(Cl)cc2)CCN(CCCn2cccn2)CC1`, `O=C(c1ccccc1)c1ccc(OCC(O)CN2CCN(Cc3ccccc3)CC2)cc1` (centres unmarked) is higher in “hERG current change (%, negative = inhibition) at 10uM” value: -74.8% for the first, -73.4% for the second.

Compared with `Cc1ccc(NC(=O)CSC2=NN3CCCC(=O)N=C3S2)cc1Cl`, `COc1ccc(-c2noc(N3CCC(C(=O)Nc4ccc(OC)c(OC)c4)CC3)n2)cc1` is lower in “hERG current change (%, negative = inhibition) at 10uM” value: 6.27% for the first, -0.895% for the second.

Compared with `CCC(C)SCc1nc2ccccc2[nH]1` (centres unmarked), `Cc1ccc(NC(=O)C(C)N=C2NS(=O)(=O)c3ccccc32)cc1` (centres unmarked) is higher in “hERG current change (%, negative = inhibition) at 10uM” value: -6.29% for the first, 13% for the second.

First: CCNC(=O)C12CCC(C)(C(=O)O1)C2(C)C (centres unmarked)
Second: C#C[C@@]1(O)CCC2C3CCC4=C/C(=N/OCC(=O)NC(C(=O)NC(CC(C)C)C(=O)O)C(C)C)CC[C@]4(C)C3CC[C@@]21C (some centres unmarked)
The “hERG current change (%, negative = inhibition) at 10uM” value of the first is higher: 2.38% for the first, -3.07% for the second.

First: Cl.O=C(CCN1CCc2ccccc2CC1)c1ccc2c(c1)OCCO2
Second: O=S(=O)(/C=C/c1ccccc1)N1CCN(c2cccc(Cl)c2)CC1
The “hERG current change (%, negative = inhibition) at 10uM” value of the first is lower: -60.6% for the first, 3.17% for the second.

Going from `O=C(CN(C(=O)c1csnn1)c1ccccc1F)NC1CCCCC1` to `O=C(NCCOC(=O)c1c(F)cccc1Cl)c1c(F)cccc1Cl`, the “hERG current change (%, negative = inhibition) at 10uM” value rises from -9.52% to 12.2%.

First: Cc1ccc(S(=O)(=O)NC(=O)Nc2ccc(C)cc2C)cc1
Second: Cc1ccc(O)c(-c2cc(C(F)(F)C(F)F)[nH]n2)c1
The “hERG current change (%, negative = inhibition) at 10uM” value of the first is higher: 13.6% for the first, -9.91% for the second.

Compared with `O=C(NNC(=S)NCC1CCCO1)c1cccc(S(=O)(=O)N2CCOCC2)c1` (centres unmarked), `COc1ccc(S(=O)(=O)N2CCC(C(N)=O)(N3CCCCC3)CC2)cc1OC` is higher in “hERG current change (%, negative = inhibition) at 10uM” value: -15.2% for the first, -3.86% for the second.

Going from `CCOC(=O)c1nc(C)nc(Sc2n[nH]c(-c3cc(C(F)(F)F)cc(C(F)(F)F)c3)n2)c1C` to `COc1ccc(C2CC(=O)C=C(NCC3CCCO3)C2)cc1` (centres unmarked), the “hERG current change (%, negative = inhibition) at 10uM” value rises from -19.5% to -9.1%.
